# According to paper PMC4336329 (PLoS ONE, 2015):
# Out of some 310,000 compounds screened, about 14,000 (4.5%) showed an effect of 50% or more. The effect is printed as a negative number. This is one part of the list.
# Target: human ether-à-go-go-related gene (hERG) potassium channel (human, UniProt Q12809)
# Assay: primary screen, population patch clamp on CHO cells stably expressing hERG
# 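Note: peak tail current of the secondary pulse compared with the same well before compound.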
# human ether-à-go-go-related gene (hERG) potassium channel, sequence (Q12809 whole entry, looked up): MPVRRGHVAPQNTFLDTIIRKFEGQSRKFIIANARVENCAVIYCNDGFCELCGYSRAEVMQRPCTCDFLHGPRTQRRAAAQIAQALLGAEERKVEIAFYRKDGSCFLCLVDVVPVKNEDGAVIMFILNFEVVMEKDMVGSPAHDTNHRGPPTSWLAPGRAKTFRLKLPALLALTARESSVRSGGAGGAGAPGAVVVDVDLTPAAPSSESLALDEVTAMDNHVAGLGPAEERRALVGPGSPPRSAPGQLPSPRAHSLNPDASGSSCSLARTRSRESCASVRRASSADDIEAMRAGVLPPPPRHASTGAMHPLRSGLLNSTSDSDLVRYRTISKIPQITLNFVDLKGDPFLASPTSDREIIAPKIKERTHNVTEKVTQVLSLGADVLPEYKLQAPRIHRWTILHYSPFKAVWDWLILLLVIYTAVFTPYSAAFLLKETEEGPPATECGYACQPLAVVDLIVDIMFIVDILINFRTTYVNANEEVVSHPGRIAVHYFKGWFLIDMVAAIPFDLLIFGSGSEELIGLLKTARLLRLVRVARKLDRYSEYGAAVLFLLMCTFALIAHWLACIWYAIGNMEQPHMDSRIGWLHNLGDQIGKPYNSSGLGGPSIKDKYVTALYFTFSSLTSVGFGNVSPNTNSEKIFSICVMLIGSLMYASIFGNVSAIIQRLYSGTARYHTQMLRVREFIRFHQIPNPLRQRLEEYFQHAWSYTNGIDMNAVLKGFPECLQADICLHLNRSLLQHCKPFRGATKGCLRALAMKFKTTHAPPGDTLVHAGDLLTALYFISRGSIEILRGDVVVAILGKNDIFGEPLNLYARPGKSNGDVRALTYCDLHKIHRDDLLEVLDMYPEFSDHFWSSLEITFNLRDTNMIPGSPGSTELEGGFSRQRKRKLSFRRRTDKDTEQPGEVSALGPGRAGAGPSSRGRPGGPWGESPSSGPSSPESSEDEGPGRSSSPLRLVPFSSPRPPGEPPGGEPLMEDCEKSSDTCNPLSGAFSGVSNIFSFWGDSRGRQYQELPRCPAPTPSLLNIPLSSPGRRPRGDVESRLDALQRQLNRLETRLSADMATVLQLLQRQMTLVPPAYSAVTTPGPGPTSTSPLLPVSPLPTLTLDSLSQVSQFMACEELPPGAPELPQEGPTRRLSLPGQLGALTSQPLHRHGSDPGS
row,SMILES,"hERG current change (%, negative = inhibition) at 10uM"
1,O=C(c1cccnc1)N1CCC(Oc2ccc(C(=O)N3CCCC(O)C3)cc2)CC1 (stereo not drawn),-0.912%
2,CCOC(=O)CC1=NN(c2ccccc2)C(=O)/C1=C\c1ccc(OC)cc1OC,6.49%
3,Cc1ccc(CSCC(=O)NCc2ccco2)cc1,-23.7%
4,CC(C)(C)NC(=O)C1Cc2ccccc2CN1C(=O)Nc1cccc(Cl)c1 (stereo not drawn),-4.36%
5,O=S(=O)(N/N=C1/CCCc2ccccc21)c1ccc(Br)cc1,-9.33%
6,COc1ccc(CCN2C(=O)CN(Cc3ccccc3)CC2=O)cc1OC,-14.4%
7,Cc1ccc(C)c(OCCn2ccnc2)c1,8.02%
8,NS(=O)(=O)c1ccc(CNC(=S)NC2CCCC2)cc1,4.12%
9,COC(=O)c1cccc(Oc2cccc(Cl)n2)c1,14.7%
10,COC(=O)c1ccc(CSc2nc3ccccc3c(=O)n2Cc2ccco2)o1,-17.6%
11,CCc1ccc(C(=O)CSc2nnc(C)c(=O)[nH]2)cc1,-1.23%
12,Cc1cccc(OCC(=O)N/N=C/c2ccccc2C(=O)O)c1,1.76%
13,Nc1nnc2c(C(F)(F)F)nc3ccccc3n12,11.8%
14,CCC(=O)N1CC(C)C(=O)Nc2ccccc21 (stereo not drawn),16.1%
15,Cc1nnc(SCC(=O)NCc2ccco2)n1-c1ccc(F)cc1,0.711%
16,Cc1ccc(-n2c(=O)c3ccccc3n(CC(=O)C(C)(C)C)c2=O)cc1,8.51%
17,CCOc1ccc(S(=O)(=O)N2CCC(C(=O)NCCc3ccc(OC)c(OC)c3)CC2)cc1,-13.6%
18,COc1ccc(N2CCN(C(=O)c3ccc(N(C)S(=O)(=O)c4ccc(OC)cc4)cc3)CC2)cc1,-32.1%
19,CCC(=O)N1CCc2cc(S(=O)(=O)NC(C(=O)Nc3cccc(C)n3)C(C)C)ccc21 (stereo not drawn),14.8%

row,SMILES,"hERG current change (%, negative = inhibition) at 10uM"
1,Cc1c(C(c2ccccc2Br)c2c(C)n(C)n(-c3ccccc3)c2=O)c(=O)n(-c2ccccc2)n1C,3.71%
2,COc1ccc(NC(=O)CCN2C(=O)NC3(CCCC3)C2=O)cc1Cl,-6.47%
3,COC(=O)[C@H]1[C@H](C(=O)OC)[C@@H](C(=O)OC)N(c2ccc(OC)cc2)[C@@H]1C(=O)OC,26.9%
4,COc1ccc(CCNc2nc(N3CCCCC3)nc(N3CCCCC3)n2)cc1OC,-2.41%
5,COc1ccccc1-c1nc2n(n1)C(c1ccc(Cl)cc1)C(C(N)=O)=C(C)N2 (stereo not drawn),-2.25%
6,Cc1[nH]nc2c1C(c1ccc3c(c1)OCO3)C(C#N)=C(N)O2 (stereo not drawn),-5.89%
7,CC(C)(C)NC(=S)NNC(=O)c1ccccc1Cl,7.54%
8,CCS(=O)(=O)N1CCCC(C(=O)NCCCN(C)Cc2ccccc2)C1 (stereo not drawn),-2.93%
9,O=C(O)C1CCCCC1C(=O)NCCc1ccncc1 (stereo not drawn),1.96%
10,CCOC(=O)CC(=O)CSc1nc2c(C)c(C)ccc2cc1C,-3%
11,CCOC(=O)NN1C(=O)c2ccccc2NC1c1cccc(O)c1 (stereo not drawn),-7.01%
12,Cc1c(NC(=O)C(C)Sc2nc3ccccc3c(=O)n2CCO)c(=O)n(-c2ccccc2)n1C (stereo not drawn),2.19%
13,COc1cc(C2C(C#N)=C(N)OC3=C2C(=O)CC(C)(C)C3)cc2c1OCO2 (stereo not drawn),-36.1%
14,COc1ccccc1N1CCN(C(=O)c2cc3sccc3n2C)CC1,-9.8%
15,Cc1cc(C(=O)NC2CCCCCCC2)ccc1[N+](=O)[O-],5.69%
16,Cc1cc2oc(=O)cc(CN3CCN(S(=O)(=O)c4ccc5c(c4)OCCO5)CC3)c2cc1C,-6.07%
17,O=C(NCC(c1ccco1)N1CCN(c2ccc(F)cc2)CC1)C(=O)NC1CCCCC1 (stereo not drawn),4.73%
18,O=C(NCc1ccccc1F)C1CCCN(S(=O)(=O)N2CCOCC2)C1 (stereo not drawn),15.9%
19,COc1ccc(/C=C/C(=O)NC(=S)NNC(=O)Cc2cccs2)cc1,-4.1%

row,SMILES,"hERG current change (%, negative = inhibition) at 10uM"
1,CCOc1ccccc1NC(=O)C1=C(C)NC(=O)NC1c1cccs1 (stereo not drawn),-2.75%
2,CCC(C#CCN1CCCCC1)(CC)OCCC#N,2.57%
3,Cc1cc(C)n2nc(C(=O)OCC(=O)N(CC(C)C)CC(C)C)nc2n1,15.6%
4,Cn1c2c(c(=O)n1-c1ccccc1)CSCC2,16.5%
5,CC(=O)c1ccc(NCC(=O)N2CCN(c3ccccc3)CC2)cc1,-8.44%
6,Cc1ccc(S(=O)(=O)N2CCC(C)CC2)cc1,-4.14%
7,Cc1nn(-c2ccccc2)c(C)c1NC(=O)COC(=O)c1ccccc1,5.7%
8,CCOC(=O)c1ccccc1NS(=O)(=O)c1c(C)nc2sccn2c1=O,-13%
9,CCC1(C)Cc2c(sc3nc4n(c(=O)c23)CCS4)CO1 (stereo not drawn),-9.38%
10,COc1cccc(NC(=O)COc2cccc3c2CCNC3=O)c1,-10.7%
11,O=C1CN=C(c2ccccc2F)c2cc(Cl)ccc2N1,-8.19%
12,O=C(NC1CCCCC1)NC1CCN(S(=O)(=O)Cc2ccccc2)CC1,-0.483%
13,OCCNC(=S)NCCc1ccccc1,13.4%
14,COc1ccc(OC)c(N(CC(=O)N2CCCC2)S(=O)(=O)c2ccccc2)c1,14.9%
15,CNC(=S)N/N=C/c1cn(Cc2c(F)cccc2Cl)c2ccccc12,6.2%
16,COc1ccc2c(c1)c1nc3ccccc3nc1n2Cc1ccc(OC(C)C)c(OC)c1,-0.905%
17,CCc1ccc(OCC(=O)Nc2ccc(-c3cc4ccccc4oc3=O)c(OC)c2)cc1,1.91%
18,CC(C)c1ccc(/C=C/C(=O)N2CCc3ccccc3C2)cc1,3.46%
19,COc1cccc(OC)c1C(=O)OCC(=O)N(c1ccccc1)C1CCCCC1,-4.4%
